According to the supplement of paper PMC10126150:
Sequences with one replicate were seen in a single cluster, so their values are uncertain.

Tested on: ATP
Test: switch fluorescence ratio, 500 uM ATP over buffer (Cy3 cluster intensity, sum of 5 cycles each) (fold (ratio)); higher = stronger signal-on switching upon ATP binding; sequences stand for … in TCGTCGGCAGCGTCAGATGTGTATAAGAGACAGTTTTTTTTTTTTTTTTTTTTTTTTT…TC
Conditions: aptamer strand: ATP DNA aptamer (quencher-CACCTGGGGGAGTATTGCGGAGGAAGG + anchor), 100 nM annealed; ATP concentration: 500 uM; one replicate
Outline: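 Switching-strand clusters labelled with Cy3 on a modified Illumina MiSeq flow-cell were annealed to 100 nM quencher-labelled ATP aptamer, imaged in selection buffer, and re-imaged after 15 min with 500 uM ATP at 22 °C. This was done over five cycles with NaOH stripping and re-annealing in between. The fluorescence ratio is summed target-cycle over summed buffer-cycle Cy3 intensity per cluster, averaged per switch-domain sequence, excluding clusters outside 100-1000 RFU.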
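Also: ATP exposure 15 min at 22 °C before imaging.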

Sequence | switch fluorescence ratio
ATATTATGC | 0.986
CATGAAGGAT | 1
AGTGACAGCA | 1.01
AATAGCCAAA | 0.963
TCATCCTGTT | 0.997
TGTTAGAAGT | 0.994
GAAGTTTGGA | 0.956
AAGCGGCGAC | 1.07
CTGCGTTGTG | 0.988
GGGCTCACTG | 1.01
GATGGAAATT | 1.03
AGAGGGCTGA | 1.03
GCATAGCGTC | 1.02
GGGATCGCAT | 1.04
GCCTGATGAA | 0.993
CGCTAAAAT | 0.998
GGCCACAGGG | 1.01
TTGGAGCGGC | 1.24
AAACGCAGC | 1.25
TTGGCTATTC | 1.08
ATTTCGCAAT | 2.34
CGGAAAGGCG | 1.03
CAGGCTCTTA | 1.02
ACCATTTCCA | 0.997
AAAGTTTTTA | 0.97
AGTGAGCCTA | 1.01

Sequence | switch fluorescence ratio
CGCTGCCCTA | 1.06
GGGCACCATT | 0.977
CGCACTTTCG | 1.05
TTTAAGAAGC | 1.03
ATCATTAGAT | 1.02
GCGAATCAGC | 1
CAATCTGGGC | 1.16
AATCGTCTAA | 1.02
TGCTGGAAAT | 0.994
GGTACCTCGA | 1
GAAGTGGGTA | 0.956
GTTGGGCAGG | 1.01
GGACGCCTAC | 1.68
TAGCCGGCTT | 0.993
TCGCCCGATA | 1.03
CACTGTCATG | 1.09
CGGCGTGCTG | 0.933
CCGGGTTGCG | 1.05
CATCGAGTTG | 1
GACGCGTAGT | 1.09
AGGCTTATAG | 1.03
GAGTACTCTG | 1.03
TATTCACCCA | 1.09
TGTTTAGGCC | 0.991
AAAAAGTAGT | 0.99
GATCCACCAG | 1.57

Sequence | switch fluorescence ratio
AGTTCGTAGG | 0.993
ATATCACGTT | 1.03
GGGCAACAGC | 1.06
ACTGATAGCT | 1.02
ATCTGTCCGG | 0.957
ACAAAGGGTA | 1.08
GCGGCGATTA | 1.03
TTAAGACCAA | 0.996
GCGTGGACAT | 1.01
AAAACATAGT | 0.977
GAGAGAGCTA | 0.986
GAATTATAGT | 1.02
AATCACACC | 1.09
AAGCATTCA | 1.04
AACGTGTTGC | 1.02
ACTCCCATCG | 1.72
GGGAATGATT | 0.992
ATCCCTCGTC | 0.948
CGCTGTTGAC | 1.1
CCCATGACGT | 0.988
ATTCATATG | 1.03
TTGGATATAG | 0.995
AACTGCCCTG | 1.09
TCGGCTATCG | 1.01
CCATAGTTAA | 1.09
TAGATGATGA | 0.989

Sequence | switch fluorescence ratio
GGTTGAATAA | 0.945
GGGACACTCT | 1
TTAGGAAATC | 0.986
ATGCACGGCG | 1.09
AGCGAGATTT | 0.929
GGTGCGAAGT | 0.983
GTGTCTTGCC | 0.973
GCTCAGTACT | 1.05
CAGAAGGGCT | 1.06
TATTGGCGG | 0.998
GAAGGTTTAG | 0.962
CAGAGGA | 0.973
GAGTATTGGC | 1.02
TGTCGATCCG | 0.96
TTCGAGTGGC | 0.944
GGGCGCCGGG | 0.98
CGGTAAGCCA | 0.98
CTTTCCGGGT | 1
GCGAGATAGG | 1.01
ATAGTCCGCA | 2.59
GAAATACACG | 1.35
ATGTTTGTGG | 1.01
ATGAAATAG | 1
CACAGGACTG | 1.01
TGTGGTGTG | 1
GTGAGGGAGG | 1

Sequence | switch fluorescence ratio
GATGCGTTCT | 0.967
GTGATTTAGC | 0.962
GAAAATTCAG | 0.986
TACCTTAGGG | 1.05
CGCTAGGCCC | 1.09
GCTTTGCGTT | 0.997
AGACTAAGCA | 1.04
GACAACGGCG | 0.996
TTGACGACGA | 1.25
GTACGTTGTA | 0.981
ATTCTTCAGG | 1.05
CCCATGGCGG | 1.04
CGCGCCACGA | 1.05
CCTTGATGG | 1.02
AAGTTCTCAG | 1.02
TGCATCTTTA | 0.983
GCAGTTAAAA | 0.976
AACATTTCGA | 1.08
ATGACTACGT | 1.01
GAGTACCCAC | 1.07
CCTGCTAGCG | 1.1
GCAGTCCGTA | 1.04
GGTCTCACTA | 0.964
TACATTTGAA | 0.997
CTACTCTCTG | 1.05
CGCTATCTCT | 1.7

Sequence | switch fluorescence ratio
GTATAATGCA | 0.983
CAGCGAGGCA | 1.04
AATCTACGG | 1.07
CGTAGAGAGA | 1.01
GATAGGAGTG | 0.987
ATTATAATC | 1
CGCGCGTTTC | 0.968
GGGATGATCG | 0.859
TCCCATACGG | 1.1
TGTGTGCACT | 1.01
CTCAGTGGTC | 1.08
TTTTGTTCAA | 0.949
TAATTTCACC | 0.997
TACGACATCT | 1.06
GGTGTGCCTG | 0.956
CTTGTTACTA | 0.971
TTCGGTATAT | 1.01
CCGGGATACC | 3.38
GGAGGTCAAC | 1.01
GGATAAGCAA | 1.47
GAGGATCCTT | 0.955
AAAGCTGGT | 1.04
CTGCGTGCGT | 0.985
CTCTCACATC | 1.19
GATAGTGTGC | 1.07
GAATTCTTCG | 1.08

Sequence | switch fluorescence ratio
GAGCCTGGCG | 0.984
TTACAAGCGC | 0.979
AAGGACAGCA | 1.04
TCGCTGGTGT | 1.05
TCCCACACGG | 1.29
CAGTACTTCA | 1.11
GACCTACCCT | 1.34
TAGATGAGAT | 1.01
ATTCCAGATG | 1.05
CTTAGGAGAT | 1.01
GGCTTACACG | 0.984
AGAGGCAACT | 1.02
TCTGCCGCGC | 1.96
GGAGTGGCAT | 0.967
GGGAATGAAA | 0.989
TTAGCGGTTG | 1.05
GCATGAGGGC | 1.09
CTTTATGGGT | 0.886
GCTCAACGAT | 1.06
TCTATATCAT | 0.98
GGTCACGT | 0.964
CTAGTTGCGA | 1.03
TGTAGGGTTA | 1
ACCGAAAGAT | 1.09
TAGATTTAAA | 0.968
CTCCGTGGTT | 2.47

Sequence | switch fluorescence ratio
CACTTGAGTT | 0.971
CAGTAAGTTA | 0.955
ACAGGTGGTG | 1.06
TGGGCCTATG | 1
CCACAGGCCA | 1.07
AAACGATCTA | 0.994
GAACTTGCAC | 1.12
TCCCCAGTCC | 1.2
AAGCACACAG | 1.08
CGTGGTTCCC | 1.05
TTCCACGTAC | 1.93
CTGATCTAG | 1.02
GAAAGACCTA | 1.01
CGCTCTTAGG | 1.01
GGAGCCTAGA | 0.97
GTTGTTGTT | 0.983
AGACCTTTAT | 1.01
ATGCTAGACG | 1.07
AGGAGCTATG | 0.978
